Data published in article PMC4336329 (PLoS ONE, 2015).
About 14,000 (4.5%) of roughly 310,000 compounds showed an effect of 50% or more. The effect is printed as a negative number. The list shows a part of the results.

Target: human ether-à-go-go-related gene (hERG) potassium channel (human, UniProt Q12809)
Assay: primary screen, population patch clamp on CHO cells stably expressing hERG
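Further: peak tail current of the secondary pulse compared with the same well before compound.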

human ether-à-go-go-related gene (hERG) potassium channel, sequence (Q12809 whole entry, looked up): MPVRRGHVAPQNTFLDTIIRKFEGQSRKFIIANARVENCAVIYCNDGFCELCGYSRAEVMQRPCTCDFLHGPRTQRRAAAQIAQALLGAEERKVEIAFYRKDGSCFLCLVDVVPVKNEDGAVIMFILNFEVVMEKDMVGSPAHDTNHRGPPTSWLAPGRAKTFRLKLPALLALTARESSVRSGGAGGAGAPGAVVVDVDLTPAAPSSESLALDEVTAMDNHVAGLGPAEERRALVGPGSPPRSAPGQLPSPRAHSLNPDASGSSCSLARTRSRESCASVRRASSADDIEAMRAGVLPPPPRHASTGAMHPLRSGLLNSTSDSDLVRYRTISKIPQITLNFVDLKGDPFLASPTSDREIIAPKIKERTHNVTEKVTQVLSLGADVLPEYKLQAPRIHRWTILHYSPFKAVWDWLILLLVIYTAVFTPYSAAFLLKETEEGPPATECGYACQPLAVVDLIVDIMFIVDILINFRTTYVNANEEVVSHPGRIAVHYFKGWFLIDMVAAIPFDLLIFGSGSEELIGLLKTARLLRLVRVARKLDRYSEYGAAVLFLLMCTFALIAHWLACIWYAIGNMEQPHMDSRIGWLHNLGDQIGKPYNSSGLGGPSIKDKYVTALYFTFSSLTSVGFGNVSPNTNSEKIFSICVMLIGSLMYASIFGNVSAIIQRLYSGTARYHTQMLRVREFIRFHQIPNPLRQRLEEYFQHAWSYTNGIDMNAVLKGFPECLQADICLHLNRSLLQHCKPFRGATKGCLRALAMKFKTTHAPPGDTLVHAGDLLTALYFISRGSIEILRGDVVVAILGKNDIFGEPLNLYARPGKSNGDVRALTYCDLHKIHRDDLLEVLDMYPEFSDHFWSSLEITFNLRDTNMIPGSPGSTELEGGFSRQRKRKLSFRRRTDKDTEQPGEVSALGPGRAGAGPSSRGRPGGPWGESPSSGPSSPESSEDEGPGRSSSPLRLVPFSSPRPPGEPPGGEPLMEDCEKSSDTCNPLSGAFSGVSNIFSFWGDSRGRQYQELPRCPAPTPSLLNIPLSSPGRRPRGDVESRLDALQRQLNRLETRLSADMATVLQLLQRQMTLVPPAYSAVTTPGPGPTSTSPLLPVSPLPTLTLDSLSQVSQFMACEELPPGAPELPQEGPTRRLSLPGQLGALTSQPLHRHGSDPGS

Compound | hERG current change (%, negative = inhibition) at 10uM [%]
Cc1nnc(-c2cnn(-c3ccccc3)c2N)n1Cc1ccncc1 | -1.74
CC(=O)c1ccc(NC(=O)CN2C(=O)CCC2=O)cc1 | -19.8
CCCCn1c(N)c(N(CCOC)C(=O)COC(=O)COc2cccc(C(C)=O)c2)c(=O)[nH]c1=O | 13.7
COC(=O)c1cn(-c2ccccc2)c(C)c1C(=O)OC | 6.91
COc1ccc(C(=O)NC(=S)NNC(=O)c2cccnc2)cc1 | 14
CCOc1ccc(OCCSc2nc3ccccc3c(=O)[nH]2)cc1 | 16.3
COc1ccccc1-c1nnc(SC)n1C | 36.9
COc1ccccc1C(=O)COC(=O)c1cccc(-n2cnnn2)c1 | -12.3
CSc1nc2cc(C)nn2c(-c2ccc(C(C)(C)C)cc2)c1C#N | 10.5
Cc1ccc(CN2CCN(C)CC2)c(C)c1 | -4.78
CC12c3ccccc3C(c3ccccc31)C1C(=O)N(Cc3cccnc3)C(=O)C12 (centres unmarked) | -21.2
Cc1cccc(C)c1NC(=O)C(NC=O)c1ccc(N(C)C)cc1 (centres unmarked) | -11.1
CCOC(=O)/C(C#N)=C1/C=CN(Cc2ccccc2)C=N1 | -35
C=CCOC(=O)C1=C[C@H](c2coc3ccccc3c2=O)[C@@H](CCCO)[C@H](OCC)O1 | -12.8
NS(=O)(=O)c1cccc(NC(=O)c2ccccc2NS(=O)(=O)c2ccc(F)cc2)c1 | -0.775
CC1CCCC(NC(=O)Cc2ccc(Br)cc2)C1C (centres unmarked) | 8.51
COC(=O)c1cc(C(=O)Nc2ccc(S(N)(=O)=O)cc2)cc([N+](=O)[O-])c1 | 15.7
Cl.FC(F)(F)c1cc(-c2ccco2)nc(N2CCN(Cc3ccccc3)CC2)n1 | 2.47
COc1cc(/C=C/C(=O)Nc2ccc3nc4n(c(=O)c3c2)CCCC4)cc(OC)c1OC | 0.353
CC(C)(C)C(=O)N1CCn2c1nc1ccccc12 | 7.28
COc1ccc(S(=O)(=O)N2CCN(CC(=O)NCCc3cccs3)CC2)cc1 | -36
CCN(CC(=O)Nc1ccccc1C(F)(F)F)C(=O)CCc1nc2sc3c(c2c(=O)[nH]1)CCCC3 | 0.77

Compound | hERG current change (%, negative = inhibition) at 10uM [%]
Cc1c(Cl)c(C(=O)NNC(=S)Nc2ccccc2)nn1C | -0.932
CCc1ccc(CNC(=O)CCn2nc(C)c3c(C)n(-c4ccccc4)nc3c2=O)cc1 | 6.51
Cc1ccc(CSc2nnc3ccc(-c4ccncc4)nn23)cc1 | -42.4
O=C(Cc1cccc2ccccc12)Nc1ccc(Br)cc1C(=O)O | 16.2
Cc1ccc(CCC(=O)Nc2nccs2)o1 | 9.24
CCOC(=O)C1(Cc2cccc(OC)c2)CCN(C/C=C/c2ccc(OC)cc2)CC1 | -72.3
O=C(OCc1nc2ccccc2[nH]1)C12CC3CC(CC(C3)C1)C2 | -19.2
Nc1nc(SCC(=O)OCc2ccccc2)[nH]c(=O)c1NC(=O)c1ccco1 | -5.67
Cc1ccccc1CC(=O)Nc1ccc(S(=O)(=O)N2CCOCC2)cc1 | 7.15
COc1ccc(/C=C/C(=O)NCC(=O)N/N=C(/C)c2ccco2)cc1 | 2.56
Cc1cc(-c2cccs2)c2c(n1)sc1c(=O)[nH]c(=O)[nH]c12 | 5.3
O=C(NNc1ccccc1[N+](=O)[O-])Nc1ccc(F)cc1 | -11.3
CC(C)C(=O)NC(=S)Nc1ccc(S(=O)(=O)Nc2nccs2)cc1 | 16
COc1cc(C)c2c(c1C=O)Oc1c(c(C)c(O)c3c1C(O)OC3=O)OC2=O (centres unmarked) | 19.4
O=C(CSc1ncn[nH]1)c1ccc(OC(F)F)cc1 | 4.02
Cc1cc(C)n2nc(SC(C)C(=O)N3CCC4(CC3)OCCO4)nc2n1 (centres unmarked) | -0.197
Cc1ncc(C(=O)O)c(C(=O)O)c1N | 13.4
Cn1c(NC(=O)c2ccc(Cl)cc2)c(-c2ccccn2)c(=O)c2ccccc21 | -5.96
COc1ccc(C(=O)/C=C/C(=O)N(CC(=O)NC2CCCCC2)CC2CCCO2)c(O)c1 (centres unmarked) | 12.5
Cc1cc(S(=O)(=O)NCc2ccc3c(c2)OCO3)ccc1F | -20.8
COc1ccc(C2c3c(nc[nH]c3=O)Oc3nc[nH]c(=O)c32)cc1 | 1.92
Cc1ccccc1C(=O)Nc1ccnn1C1CCN(C(=O)c2cnsn2)CC1 | -30.4
